# Reference: the supplement of paper PMC3334620
# Over roughly 33,000 sequences, “E-score (-0.5 to 0.5)” has its median near -0.017; the highest 2% begin near 0.3. The list shows a part of the results.
# Biological target: T1, Sut1 (UniProt P53032)
# T1 sequence: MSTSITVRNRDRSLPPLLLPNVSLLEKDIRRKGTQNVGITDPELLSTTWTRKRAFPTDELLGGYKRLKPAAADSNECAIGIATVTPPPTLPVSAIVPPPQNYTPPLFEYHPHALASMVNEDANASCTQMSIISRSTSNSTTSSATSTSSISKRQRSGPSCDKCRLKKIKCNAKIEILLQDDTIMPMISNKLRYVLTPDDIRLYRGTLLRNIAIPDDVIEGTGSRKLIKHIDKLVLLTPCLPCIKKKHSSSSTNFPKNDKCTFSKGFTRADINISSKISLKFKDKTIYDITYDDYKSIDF
# Assay: PBM E-score (8-mer binding enrichment) (E-score (-0.5 to 0.5)); higher = stronger / more preferred TF binding; most listed sequences are background and not binding sites
# Settings: protein concentration: 200 nM; construct: GST-full length
# Outline: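 Each ungapped eight-base word and its reverse complement, pooled, received an E-score from the Universal PBM Analysis Suite. Underlying scans, normalised with masliner, recorded fluorescent anti-GST bound to GST-tagged yeast transcription factors. These were applied at about 100-200 nM to universal all-10-mer Agilent arrays double-stranded by primer extension.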
row,Sequence,PBM E-score
1,CAGCCAAA,0.142
2,CGCTTTCC,-0.016
3,AACCTGCG,-0.0921
4,TAACGGCA,0.00495
5,ACACTCAC,0.111
6,ACTCATGC,-0.0834
7,ACTCTTAA,0.005
8,CCGAGTCG,-0.0127
9,CCCACTAC,-0.119
10,ATAGACTA,0.0154
11,ATCCAAGC,-0.0483
12,AAGCAAGT,0.109
13,CATCTACA,0.174
14,CCACGTGC,-0.185
15,GACTGGCC,-0.114
16,AAGACTAC,0.0293
17,GCATCAAA,0.14
18,AGATCCTA,-0.199
19,GGCGGCTA,-0.0541
20,CCTCGCCA,-0.267
21,AGACGCAC,0.0364
22,CCACGTGG,-0.454
23,TTCGAGAA,0.0303
24,ACCCACGC,-0.106
25,CACCTTGA,-0.262

row,Sequence,PBM E-score
1,CCGTAAGC,0.0479
2,ACAAATCC,0.143
3,AACACGGG,-0.148
4,GGGTCATA,-0.152
5,GTGGTCGA,-0.234
6,CCGGCGGA,0.153
7,CATCAGAG,-0.109
8,GCTTGAAC,0.106
9,CCGGACCG,0.191
10,TACAAAGA,0.149
11,ACCGATAG,-0.133
12,AGCAATCC,0.00583
13,GGGACACC,-0.231
14,ACGTTGTA,0.0407
15,CAAGTGCC,-0.239
16,ACGGTGCA,-0.124
17,ACTGGGCG,-0.121
18,CTCGGGAC,-0.0744
19,TACTGTGA,0.0644
20,AACTGAAG,-0.00359
21,AGACAGTC,-0.153
22,GCAATGGC,-0.165
23,TCAAGGCA,-0.158
24,CCTCGGAG,0.446
25,AGCCAGAA,-0.143

row,Sequence,PBM E-score
1,CAGGATAA,0.0352
2,AGGTCCAA,-0.256
3,AACGGATT,0.211
4,CAATATTC,0.0259
5,CTCATTTA,0.0854
6,ATGCGGGG,-0.183
7,CCAGGAAC,-0.254
8,CTGATTTC,0.0415
9,CAGGGCCA,-0.316
10,ACGATCCT,-0.0718
11,AACGCTAT,-0.00198
12,CTCAGCCA,-0.0785
13,CACACCCG,-0.212
14,GCCAAAAC,-0.0126
15,TAATAAAA,0.332
16,CGAATGCG,0.2
17,AAGAGGGC,-0.26
18,ACTGTCCC,-0.012
19,TAGTCGCA,-0.0489
20,CAAATTAG,0.108
21,AAATGTTA,0.124
22,AAGGATGG,-0.0959
23,ATCGACCC,0.0935
24,GGCTGTAC,-0.0774
25,GGGCTGCA,-0.105

row,Sequence,PBM E-score
1,GGTAATGA,0.116
2,AGGTCAAC,-0.0466
3,GCTAGAAC,-0.0659
4,ATCGTCGA,-0.145
5,CCTGGCCA,-0.201
6,GATGCGGA,0.0544
7,CGTCCGCC,-0.124
8,ATAATACC,0.267
9,GTCTCTCA,-0.0341
10,CCAGATCA,0.0529
11,GGGTGCAC,-0.149
12,CCTGGAAC,-0.105
13,GCACAACA,-0.0706
14,TCGCTCCA,-0.123
15,AAGCTATG,-0.0822
16,GGTCGCTA,-0.175
17,AGGACGCA,-0.167
18,CCCCGCGG,0.0405
19,ACCACTGC,-0.216
20,AAGAGCAG,-0.289
21,GATCGTCA,0.0615
22,GGTTTATA,0.0479
23,ACTCGGAT,0.0613
24,GACTTCAA,0.00724
25,CGCACGAA,0.0895

row,Sequence,PBM E-score
1,AGCCCGAA,0.0246
2,CAAGTCGA,-0.109
3,AGAGAACT,0.0621
4,CCGGTGTC,0.106
5,ACAGCGTG,-0.171
6,ACTTGGTG,-0.17
7,CACGTGAC,-0.209
8,CAATTAGA,0.149
9,GCTTTTGA,-0.0693
10,CATCATGG,-0.172
11,AATAATCA,0.164
12,CTCTTCAC,-0.076
13,CCATCGGC,-0.0803
14,CATTTTAA,0.188
15,CCGCGATA,0.0966
16,AGCTCCAG,-0.251
17,GCCGGTTA,-0.261
18,GCACGAGA,-0.0526
19,AATCGCTC,-0.0871
20,CCGGTAGA,0.226
21,AGAGCACA,-0.0607
22,TACGACCA,-0.0801
23,ACCTATAT,0.228
24,ACGTGAGT,-0.212
25,GAAGTATC,0.0554

row,Sequence,PBM E-score
1,ACTGGGAA,0.0129
2,AAGTTATG,0.243
3,ATCTACGA,-0.0493
4,CAACCAGG,-0.232
5,GGTAAATA,0.175
6,CTTAAGTA,0.14
7,CCAATTCA,0.0222
8,CATGTGCA,-0.127
9,AGCATGGC,-0.271
10,AGTTACCA,0.00205
11,CCTGTACA,-0.0612
12,ACGGAGGG,-0.142
13,AGGAGACG,-0.293
14,GCGGGATA,-0.0993
15,CGCAAGAC,-0.0949
16,ATACATAA,0.274
17,GCCATATA,-0.00751
18,CCACACAG,-0.178
19,CAGGCATG,-0.04
20,AACGATGT,0.0478
21,AGCTCCCT,-0.18
22,GCTCTGGA,-0.0394
23,AGCGATCC,-0.0455
24,CAGCGACG,-0.119
25,GCTAGACC,-0.129

row,Sequence,PBM E-score
1,ATGCAGGA,-0.197
2,CATAGAAA,0.214
3,GTTACGTA,-0.225
4,ATAACCAG,0.173
5,ATCGCCAG,-0.0985
6,AATGAGAT,0.239
7,AAGCGTAG,0.0949
8,CCAAAGAC,0.0523
9,TAAGTCCA,0.0529
10,ACACAAGT,0.0119
11,GACGCCCC,-0.207
12,CCAGATGC,-0.302
13,ATTCTCTA,0.105
14,GTAGATAA,0.23
15,ATATCAGA,0.112
16,TCCTCCGA,0.0213
17,TCGCCGAA,-0.0725
18,CGTGTTTC,0.0675
19,ACAAATTA,0.186
20,ATGGGTCA,-0.11
21,AGTGCATA,-0.149
22,ATCTCCCC,-0.285
